PubChem BioAssay AID504339 (National Center for Advancing Translational Sciences (NCATS), 2011)
Hit rate of the full screen: of about 390,000 compounds, about 17,000 (4.4%) were called active. The inconclusive results got no clear call from the source; some entries with a clear call stand among them for comparison. Calls follow the shape of the dose curve; as a rule, active = well fitted inhibition curve with a large enough effect; inconclusive = small, poorly fitted or top-dose-only effect; inactive = no such curve, though single readings can be large or run the other way. Potencies of inconclusive entries are doubtful fits and often do not repeat.

These compounds were tested against Lysine-specific demethylase 4A (Homo sapiens) (UniProt O75164) (assay: qHTS Assay for Inhibitors of JMJD2A-Tudor Domain). Settings: AlphaScreen JMJD2A-Tudor / H3K4me3 peptide binding; series mostly up to 114 µM.
Also: nearly all actives have a fitted effect of over 50% in size.
Potency is read from the fitted curve at half-maximal effect; tags tell the direction and shape of the fitted curve.

Chain of UniProt O75164 (O75164 whole entry, looked up, the tested form may be a part): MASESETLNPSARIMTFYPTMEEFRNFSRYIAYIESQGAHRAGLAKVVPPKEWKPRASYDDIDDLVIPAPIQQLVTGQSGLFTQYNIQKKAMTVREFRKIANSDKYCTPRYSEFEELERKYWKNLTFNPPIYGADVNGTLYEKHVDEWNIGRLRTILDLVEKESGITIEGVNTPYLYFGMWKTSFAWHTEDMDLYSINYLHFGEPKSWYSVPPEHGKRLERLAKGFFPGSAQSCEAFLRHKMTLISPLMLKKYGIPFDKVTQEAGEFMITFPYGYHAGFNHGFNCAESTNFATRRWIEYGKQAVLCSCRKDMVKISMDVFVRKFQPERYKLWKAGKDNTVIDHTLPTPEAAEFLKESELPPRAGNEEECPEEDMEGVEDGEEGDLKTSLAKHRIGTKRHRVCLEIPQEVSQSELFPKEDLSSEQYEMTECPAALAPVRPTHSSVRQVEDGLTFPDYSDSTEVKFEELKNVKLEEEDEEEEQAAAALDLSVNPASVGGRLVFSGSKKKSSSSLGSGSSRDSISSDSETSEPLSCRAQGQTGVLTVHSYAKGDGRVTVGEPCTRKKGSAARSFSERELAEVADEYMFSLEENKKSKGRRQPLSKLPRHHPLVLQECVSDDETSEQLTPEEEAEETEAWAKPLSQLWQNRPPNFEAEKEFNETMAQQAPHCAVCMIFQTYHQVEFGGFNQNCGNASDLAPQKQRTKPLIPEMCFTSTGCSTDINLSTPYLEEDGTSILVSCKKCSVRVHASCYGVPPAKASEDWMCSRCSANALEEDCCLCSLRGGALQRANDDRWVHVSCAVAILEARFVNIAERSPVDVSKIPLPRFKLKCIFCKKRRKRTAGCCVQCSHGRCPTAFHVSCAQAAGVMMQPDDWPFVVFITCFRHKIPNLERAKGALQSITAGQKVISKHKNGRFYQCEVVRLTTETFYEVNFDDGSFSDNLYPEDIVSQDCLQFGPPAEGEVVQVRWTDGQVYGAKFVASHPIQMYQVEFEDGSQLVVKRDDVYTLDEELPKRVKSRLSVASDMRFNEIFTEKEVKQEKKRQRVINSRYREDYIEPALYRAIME

Potency, active:
O=[N+]([O-])c1ccccc1-c1ccc(C(=S)N2CCCC2)o1 56.2 µM
C=CCc1cccc(OC)c1OCCOCCNCCO 5.62 µM
O=C(O)c1ccc(NC(=S)NC(=O)c2ccc(-c3ccc(Br)cc3)o2)cc1 15.8 µM
O=C1NC(=S)SC1=Cc1cc(Br)ccc1O 20 µM
CC12CC3(C)CC(C)(C1)CC(C(=O)Nc1nn[nH]n1)(C2)C3 50.1 µM
S=c1[nH]ncn1/N=C/c1ccc(Br)cc1 7.94 µM
COc1cc(C(=O)O)nc(OC)n1 2.82 µM
O=C(O)c1ccccc1C(=O)NCc1ccc2c(c1)OCO2 31.6 µM

Potency, inconclusive:
Cc1csc(C(C#N)C(=O)c2ccc(S(=O)(=O)N3CCCC3)cc2)n1 (stereo unspecified) 89.1 µM [inhibitor, partial curve]
CCN(CC)S(=O)(=O)c1cc([N+](=O)[O-])ccc1NNC(=O)Nc1ccc(F)cc1 3.16 µM [inhibitor, full curve, poor fit]
O=C(N/N=C/c1ccc([N+](=O)[O-])o1)c1sc2ccccc2c1Cl 56.2 µM [inhibitor, partial curve]
N#C/C(=C\c1ccc(/C=C(/C#N)c2nn(CCO)c(N)c2C#N)cc1)c1nn(CCO)c(N)c1C#N 31.6 µM [inhibitor, single point]
Oc1ccc(/C=C/c2c(F)cccc2F)c2cccnc12 10 µM [inhibitor, partial curve]
O=Cc1coc2ccc3ccccc3c2c1=O 70.8 µM [inhibitor, single point]
COc1cc(-c2nc3ccc(C)cn3c2NCc2ccccc2)ccc1-c1cccc(Cl)c1 56.2 µM [inhibitor, partial curve]
COc1ccc(OC)c(NC(=S)N2c3ccccc3CC2C)c1 (stereo unspecified) 50.1 µM [inhibitor, partial curve]
O=[N+]([O-])c1ccc(/C=N/Nc2nc(N3CCCCC3)nc(N3CCCCC3)n2)cc1 89.1 µM [inhibitor, single point]
CCOc1ccc(CN2CCN(Cc3[nH]c4ccc(OC)cc4c3C)CC2CCO)cc1 (stereo unspecified) 56.2 µM [inhibitor, partial curve]
Cc1cc([N+](=O)[O-])ccc1NC(=O)COc1nsnc1N1CCOCC1 31.6 µM [inhibitor, full curve]
CCN(CC)CCN(C(=O)c1ccc(C(=O)c2ccccc2)cc1)c1nc2ccc(OC)cc2s1 28.2 µM [inhibitor, partial curve]
COC(=O)[C@@]1(C)[C@H]2C(=O)N(Cc3ccccc3)C(=O)[C@H]2[C@H]2CN=C(SCC3CC3)N21 89.1 µM [inhibitor, single point]
Cc1nn(Cc2n[nH]c(=S)n2Cc2ccccc2)c(C)c1Cl 79.4 µM [inhibitor, partial curve]
Cc1cc(C)cc(OCC(=O)NNC(=O)C2CCCO2)c1 (stereo unspecified) 70.8 µM [inhibitor, single point]
CCOC(=O)N1CCc2c(sc3c2C(=O)NC(c2ccc(N(C)C)cc2)N3)C1 (stereo unspecified) 8.91 µM [inhibitor, partial curve]
CCOc1ccc(NC(=O)c2cc3cc4ccc(OC)cc4nc3o2)cc1 20 µM [inhibitor, partial curve]
S=C(NCc1ccco1)N1CCN(Cc2ccc(Cl)cc2Cl)CC1 79.4 µM [inhibitor, partial curve]
Cc1ccc(-n2c(SCc3ccccc3F)nc3[nH]ncc3c2=O)cc1Cl 31.6 µM [inhibitor, full curve]
O=C1Nc2ccccc2Oc2cc([N+](=O)[O-])cc(Oc3ccccc3)c21 14.1 µM [inhibitor, full curve, poor fit]
CCCOc1ccc(C(=O)NNC(=S)NC(=O)c2cc(-c3ccc(Cl)cc3)nc3ccccc23)cc1 56.2 µM [inhibitor, partial curve]
COc1cccc(NC(=O)c2ccc3c(c2)OCO3)c1 70.8 µM [inhibitor, partial curve, poor fit]
Cc1ccc(C)c(NC(=O)CSc2nccn2-c2cccc(C)c2C)c1 39.8 µM [inhibitor, partial curve]
Cc1cc(NC(=O)c2ccccc2O)nc(C)n1 4.47 µM [inhibitor, single point]
COc1ccc(Sc2nc(-c3ccccn3)ncc2OC)cc1 0.794 µM [inhibitor, full curve, poor fit]
COc1ccc(CCC(=O)Nc2ccc(C)c([N+](=O)[O-])c2)cc1 31.6 µM [inhibitor, partial curve]
Cc1c(C(=O)NCc2ccc3c(c2)cc(C)n3C)cccc1[N+](=O)[O-] 44.7 µM [inhibitor, partial curve]

Potency, inactive:
COc1ccc(CCNC(=O)CSc2nc3[nH]c(=O)cc(O)c3s2)cc1
O=S(=O)(c1cccc(Cl)c1)c1nnn2c1nc(NCc1ccc3c(c1)OCO3)c1sccc12
Cc1ccc(C)c(NS(=O)(=O)c2cc3c(cc2C)n(C)c(=O)c(=O)n3C)c1
COc1ccccc1NS(=O)(=O)c1cc(C(=O)NCCCN2CCCC2=O)ccc1C
Cc1ccc2nc(NC(=O)CSc3[nH]c(=O)ncc3C)sc2c1
CS(=O)(=O)N1CCN(c2ccccc2NC(=O)C(c2ccccc2)c2ccccc2)CC1
O=C(N/C=C\c1ccccc1)NCc1ccc(Cl)cc1Cl
O=C(NNC(=O)c1cnccn1)c1ccc(Cl)c(Cl)c1
CC1CCCN(C(=O)CN2CCN(C(=O)c3ccco3)CC2)C1 (stereo unspecified)
O=C(OCC#CCSc1nnc(-c2cccc3ccccc23)o1)c1cnc[nH]1
CCc1nn(C(CC)C(=O)NCc2ccc(OC)c(OC)c2)c(=O)c2cc3oc(C)cc3n12 (stereo unspecified)
